This is an account of results in patent publication US20210340516A1, “COMPOSITIONS CONTAINING ARGINASE 1 FOR THE TREATMENT OF NEUROVASCULAR AND RETINAL VASCULAR DISORDERS” (Augusta University Research Institute, Inc., priority 2020, published 2021).

Assay [1] relates to R28 retinal neuronal-like cells. In words: R28 cells subjected to OGD/reoxygenation, MTT assay. In kind it is cell-based. To be noted: 3 hours OGD then 3 hours reoxygenation, PEG-A1 0.1 and 1 μg/mL. Here is the method: (§1) Oxygen-glucose deprivation/reoxygenation (OGD/R) protocol: Oxygen-glucose deprivation/reoxygenation (OGD/R) in vitro was used to mimic in vivo ischemia/reperfusion injury. To achieve OGD, neuron culture was incubated in a hypoxia chamber (ProOx 110, Biospherix, <1% O2, 94% N2, and 5% CO2 at 37° C.) and glucose free DMEM medium and in some experiments this was followed by “reoxygenation” in complete medium under normoxic conditions (95% air, 5% CO2 at 37° C.).
(§2) R28 retinal neuronal-like cells: Cells were purchased from Kerafast, Inc. Boston, Mass. 02210. Cells were cultured and differentiated as described Kong, et al., Exp Eye Res., 151:82-95 (2016) and McLaughlin, et al., Frontiers in Aging Neuroscience, 10:267 (2018). Cell passages 67 to 70 were used for experiments.

Assay [2] shares this test system. The assay can be described thus: R28 cells subjected to OGD, LDH release assay. Particulars: 6 or 24 hours of OGD, PEG-A1 1 μg/mL throughout. In kind it is cell-based. Here is the method: as §1, §2
(Release of lactate dehydrogenase indicates damage to the cell membrane.)

B1: PEG-A1: recombinant human arginase (rhArg) covalently attached to methoxy polyethylene glycol (mPEG-SPA; MW 5,000) via succinamide propionic acid (SPA) linker (protein, UniProt P05089 1-322, looked up)
Arginase-1: MSAKSRTIGIIGAPFSKGQPRGGVEEGPTVLRKAGLLEKLKEQECDVKDYGDLPFADIPNDSPFQIVKNPRSVGKASEQLAGKVAEVKKNGRISLVLGGDHSLAIGSISGHARVHPDLGVIWVDAHTDINTPLTTTSGNLHGQPVSFLLKELKGKIPDVPGFSWVTPCISAKDIVYIGLRDVDPGEHYILKTLGIKYFSMTEVDRLGIGKVMEETLSYLLGRKKRPIHLSFDVDGLDPSFTPATGTPVVGGLTYREGLYITEEIYKTGLLSGLDIMEVNPSLGKTPEEVTRTVNTAVAITLACFGLAREGNHKPIDYLNPPK
modifications: mPEG-SPA 5 kDa conjugate
notes: recombinant human arginase (rhArg) covalently attached to methoxy polyethylene glycol (mPEG-SPA; MW 5,000) via succinamide propionic acid (SPA) linker
As for B1, in assay [1], the “cell viability (MTT)” value is “no difference”. For the same molecule, the “cell death (LDH release)” value in assay [2] is on record as “did not show any differences in cell death”.
